# PubChem BioAssay (NCATS)
# Values joined by “and” are separate entries in the source; they are usually repeats but may differ in a detail not shown here. Identical values can stand only once. Inconclusive results, whose numbers are uncertain, are shown with a selection of clear calls. For some assays here: A potency beside an inconclusive call is a rough fit, not a confirmed value. Active and inactive are the calls of the source. Unless noted, calls come from the whole dose curve; as a rule, active = well fitted curve in the direction sought with a large enough effect; inconclusive = small, poorly fitted or top-dose-only effect, or another doubt; inactive = no such curve, though single readings can be large; an effect the other way counts as inactive or inconclusive.
# Columns and labels:
# [1] = target: Cytochrome P450 2C19 (Homo sapiens) (UniProt P33261); test: qHTS Assay for Inhibitors and Substrates of Cytochrome P450 2C19 (AID 899); details: recombinant CYP2C19, luciferin-H EGE luminescence; activity, negative = inhibition: at 57.1 µM (top of the series); note: top concentration of the series differs between compounds; % is set by controls: 0 for no effect and ±100 for the full control effect; nearly all actives have a fitted effect of over 60% in size
# UniProt P33261, sequence (P33261 whole entry, looked up): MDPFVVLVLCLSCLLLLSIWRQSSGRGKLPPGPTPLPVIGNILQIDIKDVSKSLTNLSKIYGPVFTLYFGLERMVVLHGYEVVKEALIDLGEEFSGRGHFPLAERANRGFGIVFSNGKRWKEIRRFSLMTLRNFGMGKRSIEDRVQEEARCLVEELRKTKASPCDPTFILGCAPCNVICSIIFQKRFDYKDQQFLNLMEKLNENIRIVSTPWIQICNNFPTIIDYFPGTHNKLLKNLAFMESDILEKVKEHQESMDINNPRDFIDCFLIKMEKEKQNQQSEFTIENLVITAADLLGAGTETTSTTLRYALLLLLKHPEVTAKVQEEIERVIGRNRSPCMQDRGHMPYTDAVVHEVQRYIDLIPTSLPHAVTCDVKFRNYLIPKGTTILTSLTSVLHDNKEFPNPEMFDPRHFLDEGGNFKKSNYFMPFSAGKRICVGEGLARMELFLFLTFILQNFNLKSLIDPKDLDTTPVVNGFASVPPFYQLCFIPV
# Outline: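 Signal comes from luciferase acting on luciferin released by CYP2C19-mediated hydroxylation of Luciferin-H EGE, 10uM (KM). Assay mix: 5nM enzyme, 50mM KPO4; 60 min at 37C with NADPH regeneration. Data normalized against 57uM ketoconazole.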
# [2] = target: Cytochrome P450 3A4 (Homo sapiens) (UniProt P08684); test: qHTS for inhibitors of CYP3A4 against the NCATS DSHEA and TCM libraries (AID 1919971); note: potency is the fitted concentration of half-maximal effect
# UniProt P08684, sequence (P08684 whole entry, looked up, canonical isoform): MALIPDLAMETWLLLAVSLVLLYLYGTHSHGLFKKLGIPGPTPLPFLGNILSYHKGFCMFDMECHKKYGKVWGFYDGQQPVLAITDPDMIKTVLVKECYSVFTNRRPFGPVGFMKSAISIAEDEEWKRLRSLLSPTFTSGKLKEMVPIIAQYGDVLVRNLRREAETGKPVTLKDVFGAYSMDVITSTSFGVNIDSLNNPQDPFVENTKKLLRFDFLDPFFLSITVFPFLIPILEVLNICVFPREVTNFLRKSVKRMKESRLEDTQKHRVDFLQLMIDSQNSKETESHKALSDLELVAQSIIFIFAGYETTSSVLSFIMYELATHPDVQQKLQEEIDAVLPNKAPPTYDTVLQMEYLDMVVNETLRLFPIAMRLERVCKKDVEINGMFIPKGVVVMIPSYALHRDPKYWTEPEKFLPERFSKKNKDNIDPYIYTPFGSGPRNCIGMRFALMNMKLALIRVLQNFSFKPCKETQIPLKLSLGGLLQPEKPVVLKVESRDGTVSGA
# Outline: (§1)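 Isoform-specific enzyme and substrate levels; enzyme-free wells as background. Reaction: 1x NADPH regenerating system, 30-45 min, room temperature, shielded from light; luminescent detection reagent added, 30 min.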
# [3] = target: Cytochrome P450 2D6 (Homo sapiens) (UniProt P10635); test: qHTS for inhibitors of CYP2D6 against the NCATS DSHEA and TCM libraries (AID 1919972); note: potency is the fitted concentration of half-maximal effect
# UniProt P10635, sequence (P10635 whole entry, looked up): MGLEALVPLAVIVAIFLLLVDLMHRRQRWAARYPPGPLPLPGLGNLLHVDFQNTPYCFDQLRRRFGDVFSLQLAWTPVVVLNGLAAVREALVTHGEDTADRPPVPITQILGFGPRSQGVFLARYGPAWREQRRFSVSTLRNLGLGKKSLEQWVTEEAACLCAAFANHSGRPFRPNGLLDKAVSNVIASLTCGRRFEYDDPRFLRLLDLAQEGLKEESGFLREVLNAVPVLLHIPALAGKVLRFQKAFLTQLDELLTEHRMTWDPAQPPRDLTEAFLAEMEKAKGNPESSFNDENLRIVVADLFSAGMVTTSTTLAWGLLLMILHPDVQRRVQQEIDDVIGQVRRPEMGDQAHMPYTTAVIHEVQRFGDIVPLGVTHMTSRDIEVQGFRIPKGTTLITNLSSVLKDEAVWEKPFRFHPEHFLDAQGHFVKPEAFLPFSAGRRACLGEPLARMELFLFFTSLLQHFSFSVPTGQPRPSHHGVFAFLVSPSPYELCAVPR
# Outline: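 qHTS, concentration–response format with most substances from 19.5 nM. CYP2D6 + pro-luciferin substrate, 15 min with compound, then 1x NADPH regen, 30–45 min RT dark. Glo detection 30 min, luminescence. Quinidine control.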
# [4] = target: Cytochrome P450 2C9 (Homo sapiens) (UniProt P11712); test: qHTS for inhibitors of CYP2C9 against the NCATS DSHEA and TCM libraries (AID 1919973); note: potency is the fitted concentration of half-maximal effect
# UniProt P11712, sequence (P11712 whole entry, looked up): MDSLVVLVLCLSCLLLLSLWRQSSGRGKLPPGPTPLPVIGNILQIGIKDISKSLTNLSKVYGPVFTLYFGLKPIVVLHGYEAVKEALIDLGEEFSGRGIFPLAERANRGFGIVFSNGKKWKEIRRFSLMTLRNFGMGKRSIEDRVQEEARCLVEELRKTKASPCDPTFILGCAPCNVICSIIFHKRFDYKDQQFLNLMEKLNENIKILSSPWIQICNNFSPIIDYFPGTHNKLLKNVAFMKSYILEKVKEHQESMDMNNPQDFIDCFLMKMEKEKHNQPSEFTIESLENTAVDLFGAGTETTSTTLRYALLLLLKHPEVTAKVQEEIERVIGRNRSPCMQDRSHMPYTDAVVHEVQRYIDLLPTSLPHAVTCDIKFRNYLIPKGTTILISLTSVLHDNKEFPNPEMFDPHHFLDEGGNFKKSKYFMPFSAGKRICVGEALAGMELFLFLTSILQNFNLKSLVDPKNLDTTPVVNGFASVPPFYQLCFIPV
# Outline: as §1
# [5] = target: Nuclear receptor subfamily 1 group I member 2 (Homo sapiens) (UniProt O75469); test: Dual reporter qHTS for agonist of Pregnane X Receptor (hPXR) against the NCATS DSHEA and TCM libraries: Luminescence readout (AID 1920059); note: potency is the fitted concentration of half-maximal effect
# UniProt O75469, sequence (O75469 whole entry, looked up): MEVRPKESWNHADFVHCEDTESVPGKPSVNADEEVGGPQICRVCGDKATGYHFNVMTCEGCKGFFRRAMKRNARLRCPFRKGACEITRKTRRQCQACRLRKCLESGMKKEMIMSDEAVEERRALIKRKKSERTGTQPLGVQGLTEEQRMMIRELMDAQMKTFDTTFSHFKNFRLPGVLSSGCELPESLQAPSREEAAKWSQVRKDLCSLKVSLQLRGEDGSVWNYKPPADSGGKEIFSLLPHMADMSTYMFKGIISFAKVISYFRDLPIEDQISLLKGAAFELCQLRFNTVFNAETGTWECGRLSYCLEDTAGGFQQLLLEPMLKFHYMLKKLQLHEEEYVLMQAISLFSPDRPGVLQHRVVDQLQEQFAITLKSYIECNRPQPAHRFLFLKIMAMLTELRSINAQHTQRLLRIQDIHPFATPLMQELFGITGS
# Outline: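 hPXR-Luc HepG2 cells, 2000/well in 5% charcoal-stripped FBS medium, attached 5 h, then exposed 24 h at 37C to compounds. Viability by CellTiter-Fluor, then luciferase luminescence with ONE-Glo.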
# [6] = test system: AS120; test: qHTS profiling for inhibitors of Plasmodium falciparum proliferation (AID 504749); note: potency is the fitted concentration of half-maximal effect; nearly all actives have a fitted effect of over 60% in size; details: P. falciparum in erythrocytes, SYBR Green DNA, 72 h; series mostly up to 28.7 µM
# Outline: (§2)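 SYBR Green fluorescence (ex 485 nm, em 535 nm) reports parasite DNA after 72 h compound exposure of infected red cells at 0.3% parasitemia, 2.5% hematocrit; signal normalized to 0.29 uM artemisinin and vehicle wells.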
# [7] = test system: FAB9; test: as above; details: P. falciparum in erythrocytes, SYBR Green DNA, 72 h; series mostly up to 28.7 µM
# Outline: as §2
# [8] = target: 3',5'-cyclic-AMP phosphodiesterase 4B (Homo sapiens) (UniProt Q07343); test: qHTS Assay for Inhibitors of PDE-IV (AID 607; active = well fitted activation curve with a large enough effect in the main read-out, with a control signal flat, not every such curve was filed as active; inconclusive = small, poorly fitted or top-dose-only effect, or effect the other way, or a change in a side signal; note: potency is the fitted concentration of half-maximal effect); details: HEK293 ACTOne CNG channel cells, membrane potential fluorescence; activation (PDE inhibition): at 22.9 µM (top of the series)
# UniProt Q07343, sequence (Q07343 whole entry, looked up): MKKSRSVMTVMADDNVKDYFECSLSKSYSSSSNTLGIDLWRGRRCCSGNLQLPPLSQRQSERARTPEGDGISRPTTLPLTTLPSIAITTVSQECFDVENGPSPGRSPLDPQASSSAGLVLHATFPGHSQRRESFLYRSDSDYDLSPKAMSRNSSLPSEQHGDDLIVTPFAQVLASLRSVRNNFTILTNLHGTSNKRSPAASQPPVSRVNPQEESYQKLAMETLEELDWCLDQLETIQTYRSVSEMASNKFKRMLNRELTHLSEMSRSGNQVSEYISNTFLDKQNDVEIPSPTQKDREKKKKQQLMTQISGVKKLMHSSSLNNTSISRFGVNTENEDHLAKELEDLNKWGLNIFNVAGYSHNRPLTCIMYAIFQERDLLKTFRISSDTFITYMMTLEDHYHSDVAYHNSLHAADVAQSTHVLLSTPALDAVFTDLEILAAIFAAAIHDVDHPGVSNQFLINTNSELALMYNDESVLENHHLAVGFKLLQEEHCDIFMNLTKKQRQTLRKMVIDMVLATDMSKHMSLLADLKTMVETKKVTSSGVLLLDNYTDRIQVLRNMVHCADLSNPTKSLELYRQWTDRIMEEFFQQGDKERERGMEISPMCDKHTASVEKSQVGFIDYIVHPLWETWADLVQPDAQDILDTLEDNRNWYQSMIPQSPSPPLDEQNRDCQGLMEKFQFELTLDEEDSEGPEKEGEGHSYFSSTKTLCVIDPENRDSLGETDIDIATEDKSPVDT
# Outline: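 ACTOne HEK293 cells carry a modified cAMP-gated CNG channel and express endogenous PDE4; plated 1000 cells/well, compounds up to 22.9 uM final. Membrane-potential dye fluorescence (ex 535/em 590) was read; parental cells received 10 uM forskolin + 100 uM RO 20-1724.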
# [9] = Counterscreen qHTS for small molecule stabilizers of the endoplasmic reticulum resident proteome: GLuc-NoTag assay (AID 1508627); note: potency is the fitted concentration of half-maximal effect
# Outline: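 Counterscreen line: SH-SY5Y-GLuc-NoTag. Seed, 5 h; compound, 19 h; thapsigargin 100 nM, 4 h; 37C/5% CO2. Readout: secreted GLuc luminescence, coelenterazine 0.07x final, no lysis.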
# [10] = Confirmatory qHTS for small molecule stabilizers of the endoplasmic reticulum resident proteome: Secreted ER Calcium Modulated Protein (SERCaMP) assay (AID 1508628); note: potency is the fitted concentration of half-maximal effect; nearly all actives have a fitted effect of over 40% in size
# Outline: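 GLuc-SERCaMP-expressing SH-SY5Y cells, pretreated 16 h with compound, are challenged with thapsigargin to empty ER calcium stores; after 4 h, coelenterazine is added directly to the medium and luminescence is imaged.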
# [11] = Cell Viability qHTS for small molecule stabilizers of the endoplasmic reticulum resident proteome (AID 1508629); details: cell viability counter-screen, 100 nM thapsigargin for final 4 h;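 note: potency is the fitted concentration of half-maximal effect; compound exposure about 46 h in total before the viability read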
# [12] = qHTS profiling for inhibitors of Plasmodium falciparum proliferation (AID 504749); note: potency is the fitted concentration of half-maximal effect; nearly all actives have a fitted effect of over 60% in size; details: P. falciparum in erythrocytes, SYBR Green DNA, 72 h; Potency: parasite line A unless noted; series mostly up to 28.7 µM
# Outline: as §2
# [13] = target: Endonuclease 4 (Escherichia coli (strain K12)) (UniProt P0A6C1); test: Counterscreen for APE1 Inhibitors: qHTS Validation Assay for Inhibitors of Endonuclease IV (AID 1708); note: potency is the fitted concentration of half-maximal effect
# Outline: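 Read-out: fluorescence rise (ex 525/em 598 nm) from incision of a TAMRA/BHQ-2 double-stranded THF abasic-site substrate (50 nM), measured kinetically; third-minus-first read difference gave reaction progress. Enzyme 2 nM.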
# [14] = qHTS for differential inhibitors of proliferation of Plasmodium falciparum line 7G8 (AID 1815);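 note: potency is the fitted concentration of half-maximal effect; parasite growth measured after three days of incubation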
# [15] = target: Atrial natriuretic peptide receptor 2 (Homo sapiens) (UniProt P20594); test: Natriuretic polypeptide receptor (hNpr2) antagonism - Pilot subtype selectivity assay (AID 1347050; calls by dose curve; note: potency is the fitted concentration of half-maximal effect)
# UniProt P20594, sequence (P20594 whole entry, looked up): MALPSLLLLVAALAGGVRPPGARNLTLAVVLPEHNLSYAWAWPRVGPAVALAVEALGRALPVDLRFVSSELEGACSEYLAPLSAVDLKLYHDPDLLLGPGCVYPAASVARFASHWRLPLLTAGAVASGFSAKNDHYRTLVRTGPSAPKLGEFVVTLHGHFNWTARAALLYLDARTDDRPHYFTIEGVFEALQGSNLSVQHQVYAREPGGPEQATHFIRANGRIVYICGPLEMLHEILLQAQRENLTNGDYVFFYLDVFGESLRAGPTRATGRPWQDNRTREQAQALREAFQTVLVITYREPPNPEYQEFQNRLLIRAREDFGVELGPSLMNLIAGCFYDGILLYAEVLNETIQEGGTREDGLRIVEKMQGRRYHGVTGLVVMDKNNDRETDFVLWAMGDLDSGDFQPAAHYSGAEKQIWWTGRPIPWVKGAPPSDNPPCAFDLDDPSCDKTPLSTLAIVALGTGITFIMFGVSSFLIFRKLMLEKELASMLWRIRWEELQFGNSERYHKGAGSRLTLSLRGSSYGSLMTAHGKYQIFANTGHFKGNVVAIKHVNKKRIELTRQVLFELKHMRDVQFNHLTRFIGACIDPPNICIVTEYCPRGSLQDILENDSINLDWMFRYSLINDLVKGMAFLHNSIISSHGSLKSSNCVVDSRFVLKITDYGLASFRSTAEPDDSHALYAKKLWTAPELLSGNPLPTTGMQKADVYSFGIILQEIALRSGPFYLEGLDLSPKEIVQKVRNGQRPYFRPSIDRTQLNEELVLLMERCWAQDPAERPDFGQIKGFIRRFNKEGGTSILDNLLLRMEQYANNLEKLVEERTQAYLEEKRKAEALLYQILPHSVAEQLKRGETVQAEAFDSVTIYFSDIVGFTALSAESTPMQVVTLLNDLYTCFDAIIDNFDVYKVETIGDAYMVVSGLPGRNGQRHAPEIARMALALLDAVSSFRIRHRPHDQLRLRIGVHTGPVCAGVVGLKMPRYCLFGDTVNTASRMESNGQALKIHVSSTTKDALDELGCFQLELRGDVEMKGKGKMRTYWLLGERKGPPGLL
# Outline: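 Luminescence from a genetically encoded cGMP luciferase biosensor in hNpr2-expressing HEK293 cells is read before and 20 min after adding 1 nM hNppC. Test compounds, in interplate 1:5 titrations, are added 30-50 min ahead of the agonist.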
# [16] = qHTS of pediatric cancer cell lines to identify multiple opportunities for drug repurposing: Confirmatory screen for SK-N-MC cells (AID 1347111);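 note: potency is the fitted concentration of half-maximal effect; cells exposed to compound for 48 h before the readout; nearly all actives have a fitted effect of over 70% in size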
# Outline: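 SK-N-MC cells at 500-1,000 cells/well in growth media were pre-incubated 5 h, then exposed to compounds at 11-point dilutions for 48 h at 37 degrees C, 5% CO2. Viability was read as CellTiter-Glo luminescence.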
# [17] = qHTS of pediatric cancer cell lines to identify multiple opportunities for drug repurposing: Confirmatory screen for U-2 OS cells (AID 1347122); note: potency is the fitted concentration of half-maximal effect; nearly all actives have a fitted effect of over 65% in size
# Outline: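 Viability after 48 h compound treatment at 37C, 500-1,000 cells/well, read as ATP luminescence with CellTiter-Glo. Primary screens used 11-point (MIPE, 0.78 nM-46 µM) or 8-point (NPC, 0.59 nM-46 µM) final concentrations; follow-up screens used 11-point dilutions.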
# [18] = Confirmatory screen NINDS Rhodamine qHTS for Zika virus inhibitors (AID 1347161);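 note: purified Zika NS2B-NS3 protease with linked NS2B cofactor domain and Rhodamine110 peptide substrate; plate controls were no-inhibitor control for no effect and no-enzyme control for full effect; nearly all actives have a fitted effect of over 60% in size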
# Outline: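 Purified linked NS2B-NS3 protease (NS2B hydrophilic domain joined to NS3 protease by flexible linker), 25 nM in 10 mM Tris-HCl pH 8.0, 0.01% Tween 20. Compounds titrated, 15 min preincubation at room temperature; 1.5 microM Rhodamine110 substrate, FITC fluorescence change over 15 min.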
# [19] = qHTS to identify inhibitors of the type 1 interferon - major histocompatibility complex class I in skeletal muscle: primary screen against the NCATS LOPAC collection (AID 1347405); details: iHSKM muscle cells, IFN-b-induced MHC-I HiBiT luminescence, 24 h; activity change, negative = inhibition: at 45.9 µM (top of the series);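 note: human myoblasts with HiBiT tag on endogenous HLA-B stimulated by IFN-beta; lytic HiBiT luminescence reporting HLA-B protein level; % is set by controls: 0 for no effect and ±100 for the full control effect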
# Outline: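 IFN-beta-stimulated (4 ng/ml) HLA-B HiBiT knock-in myoblasts, compound-treated 24 hrs up to 46 uM final; signal via LgBiT complementation and furimazine luminescence.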
# [20] = Quantitative High-Throughput drug screen in 47 multiple myeloma cell lines against the NCATS MIPE library collection: JJN3_DSMZ cell viability assay (AID 1918966; note: potency is the fitted concentration of half-maximal effect; nearly all actives have a fitted effect of over 50% in size)
# Outline: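 Steps: seed 500 cells per well; pin-transfer MIPE 4.0 library; incubate 48 h at 37C, 5% CO2, humidified; add CellTiter-Glo, 5 min room temperature; read luminescence.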
# Tags give direction and shape of the fitted curve.
structure (smiles),measurement,setting,value
CC(=O)C1=C(O)C=C2Oc3c(C(C)=O)c(O)c(C)c(O)c3[C@]2(C)C1=O,"activity, negative = inhibition",[1],inconclusive: -59.1% [inhibitor]
same,Potency,[2],"inconclusive: 12.6 µM [inhibitor, partial curve]"
same,Potency,[3],"inconclusive: 14.1 µM [inhibitor, single point]"
same,Potency,[4],active: 4.47 µM
same,Potency,[5],"inconclusive: 14.1 µM [activator, single point]"
C/C(=C\C(=O)OCCCCCCCCC(=O)O)C[C@@H]1OC[C@H](C[C@@H]2O[C@H]2[C@@H](C)[C@H](C)O)[C@@H](O)[C@H]1O,Potency,[6],"inconclusive: 79.4 nM [inhibitor, full curve]"
same,Potency,[7],"inconclusive: 708 nM [inhibitor, full curve, poor fit]"
CN1CCC[C@@H]1CCO[C@](C)(c1ccccc1)c1ccc(Cl)cc1,Potency,[8],"inconclusive: 15.1 µM [rising, partial curve] and inconclusive: 7.55 µM [rising, partial curve]"
same,Potency,[9],"inconclusive: 44.7 µM [inhibitor, partial curve] and inconclusive: 11.2 µM [inhibitor, partial curve, poor fit]"
same,Potency,[10],"inconclusive: 25.1 µM [inhibitor, partial curve, poor fit] and active: 15.8 µM"
same,Potency,[11],"inconclusive: 31.6 µM [cytotoxic, single point]"
same,Potency,[12],"inconclusive: 17.8 µM [inhibitor, single point]"
CN1CCN(CCCN2c3ccccc3Sc3ccc(C(F)(F)F)cc32)CC1,Potency,[13],"inconclusive: 39.8 µM [inhibitor, partial curve]"
same,Potency,[14],active: 3.98 µM
same,Potency,[15],"inconclusive: 16.5 µM [inhibitor, single point]"
same,Potency,[16],"inconclusive: 32.9 µM [cytotoxic, single point]"
same,Potency,[17],active: 23.3 µM
same,Potency,[18],inactive
same,Potency,[19],inactive
same,Potency,[20],"inconclusive: 3.32 µM [rising, partial curve, poor fit]"
